T1: RBFOX1 RRM RbFoxmut (Fox-RRM*) (Homo sapiens, UniProt Q9NWB1 109-208, R118D;E147R;N151S;E152T)
T1 sequence: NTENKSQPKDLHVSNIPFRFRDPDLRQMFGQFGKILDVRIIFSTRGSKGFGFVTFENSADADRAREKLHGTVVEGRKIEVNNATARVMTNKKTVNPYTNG

B1: CCUGUGA (DNA:RNA)
RNA: GGGAGACCGGAAUUCAGAUUGUCCCCUGUGAUUAAAUCCCGUCGUAGCCACCA
DNA 1: CAATCTGAATTCCGGTCTCCC
DNA 2: TGGTGGCTACGACGGGATT
B2: GAGGCUG (DNA:RNA)
RNA: B1 RNA with C25G, C26A, U27G, U29C, G30U, A31G
DNA 1: CAATCTGAATTCCGGTCTCCC
DNA 2: TGGTGGCTACGACGGGATT
B3: CUAUUUG (DNA:RNA)
RNA: B1 RNA with C26U, U27A, G28U, G30U, A31G
DNA 1: CAATCTGAATTCCGGTCTCCC
DNA 2: TGGTGGCTACGACGGGATT
B4: UCGGGCU (DNA:RNA)
RNA: B1 RNA with C25U, U27G, U29G, G30C, A31U
DNA 1: CAATCTGAATTCCGGTCTCCC
DNA 2: TGGTGGCTACGACGGGATT
B5: AAUCCAC (DNA:RNA)
RNA: B1 RNA with C25A, C26A, G28C, U29C, G30A, A31C
DNA 1: CAATCTGAATTCCGGTCTCCC
DNA 2: TGGTGGCTACGACGGGATT
B6: UUAAGGA (DNA:RNA)
RNA: B1 RNA with C25U, C26U, U27A, G28A, U29G
DNA 1: CAATCTGAATTCCGGTCTCCC
DNA 2: TGGTGGCTACGACGGGATT
B7: ACCUUUG (DNA:RNA)
RNA: B1 RNA with C25A, U27C, G28U, G30U, A31G
DNA 1: CAATCTGAATTCCGGTCTCCC
DNA 2: TGGTGGCTACGACGGGATT
B8: GUGGCCU (DNA:RNA)
RNA: B1 RNA with C25G, C26U, U27G, U29C, G30C, A31U
DNA 1: CAATCTGAATTCCGGTCTCCC
DNA 2: TGGTGGCTACGACGGGATT
B9: CGGAACC (DNA:RNA)
RNA: B1 RNA with C26G, U27G, G28A, U29A, G30C, A31C
DNA 1: CAATCTGAATTCCGGTCTCCC
DNA 2: TGGTGGCTACGACGGGATT
B10: GGUCUUU (DNA:RNA)
RNA: B1 RNA with C25G, C26G, G28C, G30U, A31U
DNA 1: CAATCTGAATTCCGGTCTCCC
DNA 2: TGGTGGCTACGACGGGATT
B11: GAUGCAA (DNA:RNA)
RNA: B1 RNA with C25G, C26A, U29C, G30A
DNA 1: CAATCTGAATTCCGGTCTCCC
DNA 2: TGGTGGCTACGACGGGATT
B12: UCGCAGA (DNA:RNA)
RNA: B1 RNA with C25U, U27G, G28C, U29A
DNA 1: CAATCTGAATTCCGGTCTCCC
DNA 2: TGGTGGCTACGACGGGATT
B13: GGUCUUA (DNA:RNA)
RNA: B1 RNA with C25G, C26G, G28C, G30U
DNA 1: CAATCTGAATTCCGGTCTCCC
DNA 2: TGGTGGCTACGACGGGATT
B14: AAGUACU (DNA:RNA)
RNA: GGGAGACCGGAAUUCAGAUUGUCCAAGUACUUUAAAUCCCGUCGUAGCCACCA
DNA 1: CAATCTGAATTCCGGTCTCCC
DNA 2: TGGTGGCTACGACGGGATT
B15: UUUACGC (DNA:RNA)
RNA: B1 RNA with C25U, C26U, G28A, U29C, A31C
DNA 1: CAATCTGAATTCCGGTCTCCC
DNA 2: TGGTGGCTACGACGGGATT
B16: CCACCUG (DNA:RNA)
RNA: B1 RNA with U27A, G28C, U29C, G30U, A31G
DNA 1: CAATCTGAATTCCGGTCTCCC
DNA 2: TGGTGGCTACGACGGGATT
B17: GAGAAGA (DNA:RNA)
RNA: B14 RNA with A25G, U28A, C30G, U31A
DNA 1: CAATCTGAATTCCGGTCTCCC
DNA 2: TGGTGGCTACGACGGGATT
B18: GUGCCAA (DNA:RNA)
RNA: B14 RNA with A25G, A26U, U28C, A29C, C30A, U31A
DNA 1: CAATCTGAATTCCGGTCTCCC
DNA 2: TGGTGGCTACGACGGGATT
B19: ACGAGGC (DNA:RNA)
RNA: B14 RNA with A26C, U28A, A29G, C30G, U31C
DNA 1: CAATCTGAATTCCGGTCTCCC
DNA 2: TGGTGGCTACGACGGGATT
B20: UACCGUC (DNA:RNA)
RNA: B14 RNA with A25U, G27C, U28C, A29G, C30U, U31C
DNA 1: CAATCTGAATTCCGGTCTCCC
DNA 2: TGGTGGCTACGACGGGATT
B21: AAUUCUG (DNA:RNA)
RNA: B14 RNA with G27U, A29C, C30U, U31G
DNA 1: CAATCTGAATTCCGGTCTCCC
DNA 2: TGGTGGCTACGACGGGATT
B22: ACGUACA (DNA:RNA)
RNA: B14 RNA with A26C, U31A
DNA 1: CAATCTGAATTCCGGTCTCCC
DNA 2: TGGTGGCTACGACGGGATT
B23: GAAGUCU (DNA:RNA)
RNA: B14 RNA with A25G, G27A, U28G, A29U
DNA 1: CAATCTGAATTCCGGTCTCCC
DNA 2: TGGTGGCTACGACGGGATT
B24: AAGGUUA (DNA:RNA)
RNA: B14 RNA with U28G, A29U, C30U, U31A
DNA 1: CAATCTGAATTCCGGTCTCCC
DNA 2: TGGTGGCTACGACGGGATT
B25: CCUAUCU (DNA:RNA)
RNA: B1 RNA with G28A, G30C, A31U
DNA 1: CAATCTGAATTCCGGTCTCCC
DNA 2: TGGTGGCTACGACGGGATT
B26: AGUGCCC (DNA:RNA)
RNA: B14 RNA with A26G, G27U, U28G, A29C, U31C
DNA 1: CAATCTGAATTCCGGTCTCCC
DNA 2: TGGTGGCTACGACGGGATT
B27: AGCCAUU (DNA:RNA)
RNA: B14 RNA with A26G, G27C, U28C, C30U
DNA 1: CAATCTGAATTCCGGTCTCCC
DNA 2: TGGTGGCTACGACGGGATT
B28: UUGGGCU (DNA:RNA)
RNA: B14 RNA with A25U, A26U, U28G, A29G
DNA 1: CAATCTGAATTCCGGTCTCCC
DNA 2: TGGTGGCTACGACGGGATT
B29: ACGCUGU (DNA:RNA)
RNA: B14 RNA with A26C, U28C, A29U, C30G
DNA 1: CAATCTGAATTCCGGTCTCCC
DNA 2: TGGTGGCTACGACGGGATT
B30: UCUCCUC (DNA:RNA)
RNA: B1 RNA with C25U, G28C, U29C, G30U, A31C
DNA 1: CAATCTGAATTCCGGTCTCCC
DNA 2: TGGTGGCTACGACGGGATT
B31: CAAGGCA (DNA:RNA)
RNA: B1 RNA with C26A, U27A, U29G, G30C
DNA 1: CAATCTGAATTCCGGTCTCCC
DNA 2: TGGTGGCTACGACGGGATT

Numbering of substitutions follows the chain as printed; changes in the protein carry UniProt numbers. The list shows a part of the results.

The assay deals with T1, RBFOX1 RRM RbFoxmut (Fox-RRM*). The assay is described as follows: EMSA; HiTS-Eq, 1 nM pool, 10 min; buffer printed only for the single-RNA assays: 10 mM Tris pH 7.5, 150 mM NaCl, 3.4 mM EDTA, 0.001% NP-40, 30 C. The note with it: tags: His6 N-terminal (pET28a); label: 5' 32P. The procedure, abridged:
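Purified RbFox RRM (wild type or mutant) was equilibrated for 10 min in 50 µL with 1 nM of a 5′-radiolabelled pool of RNA with 7 randomized nucleotides, its flanks annealed to DNA oligonucleotides, across increasing protein concentrations. Free RNA was separated by 8% native PAGE, excised, reverse-transcribed, PCR-barcoded and sequenced on an Illumina HiSeq 2500. Relative association constants came from read-count changes of each variant against the control reaction, normalised to the cognate motif.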
(In EMSA bound probe runs differently from free probe, usually more slowly.)
Take B1: the binding signal is 0.155 KA relative to UGCAUGU. For B2, the binding signal is 0.224 KA relative to UGCAUGU.

For the molecule B3, the binding signal is 0.123 KA relative to UGCAUGU. As for B4, the figure is 0.0653 KA relative to UGCAUGU. Under B5 stands 0.0859 KA relative to UGCAUGU. Under B6 stands 0.0455 KA relative to UGCAUGU; under B7, 0.13 KA relative to UGCAUGU; under B8, 0.106 KA relative to UGCAUGU.

For B9, the binding signal is 0.154 KA relative to UGCAUGU. Under B10 stands 0.0365 KA relative to UGCAUGU; under B11, 0.0655 KA relative to UGCAUGU; under B12, 0.0842 KA relative to UGCAUGU. As for B13, the binding signal is 0.0996 KA relative to UGCAUGU. As to B14, the binding signal was 0.0868 KA relative to UGCAUGU.

As to B15, the binding signal was 0.122 KA relative to UGCAUGU. As for B16, the figure is 0.107 KA relative to UGCAUGU; as for B17, 0.109 KA relative to UGCAUGU. Under B18 stands 0.0703 KA relative to UGCAUGU; under B19, 0.114 KA relative to UGCAUGU. Under B20 stands 0.0593 KA relative to UGCAUGU; under B21, 0.102 KA relative to UGCAUGU. With B22, the binding signal is 0.0819 KA relative to UGCAUGU. Under B23 stands 0.0472 KA relative to UGCAUGU. Take B24: the binding signal is 0.118 KA relative to UGCAUGU.

B25: the binding signal was 0.102 KA relative to UGCAUGU. On to B26, for which the binding signal was 0.0613 KA relative to UGCAUGU. As for B27, the figure is 0.0779 KA relative to UGCAUGU; as for B28, 0.0678 KA relative to UGCAUGU.

On to B29, for which the binding signal is 0.107 KA relative to UGCAUGU. In the case of B30, the binding signal was 0.0659 KA relative to UGCAUGU.

In the case of B31, the binding signal is 0.106 KA relative to UGCAUGU.

The record behind these values is PMC9911399, “Two distinct binding modes provide the RNA-binding protein RbFox with extraordinary sequence specificity”.
